# Data published in PubChem BioAssay AID485344 (National Center for Advancing Translational Sciences (NCATS), 2010).
# Hit rate of the full screen: of about 340,000 compounds, about 6,900 (2%) were called active. Rule as the data show it: active = inhibition above about 30%; inactive = below that, where a call was filed. This is a selection; strong and weak results do not stand in their true shares. The source gives no active or inactive call for entries shown without one.
# Molecular target: D(2) dopamine receptor (Homo sapiens) (UniProt P14416)
# UniProt P14416, sequence (P14416 whole entry, looked up): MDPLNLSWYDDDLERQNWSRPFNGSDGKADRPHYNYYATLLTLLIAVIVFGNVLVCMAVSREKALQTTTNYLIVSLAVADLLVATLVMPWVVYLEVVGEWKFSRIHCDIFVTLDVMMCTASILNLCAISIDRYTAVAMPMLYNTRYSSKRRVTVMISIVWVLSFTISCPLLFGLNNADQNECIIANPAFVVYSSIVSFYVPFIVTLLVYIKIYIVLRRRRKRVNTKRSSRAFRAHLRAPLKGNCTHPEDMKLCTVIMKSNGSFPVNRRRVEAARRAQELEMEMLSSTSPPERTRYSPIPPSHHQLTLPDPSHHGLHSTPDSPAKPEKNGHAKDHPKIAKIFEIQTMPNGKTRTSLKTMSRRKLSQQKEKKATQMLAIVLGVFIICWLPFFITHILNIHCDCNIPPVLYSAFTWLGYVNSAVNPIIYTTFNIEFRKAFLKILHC
# Test: HTS Assay for Allosteric Antagonists of the Human D2 Dopamine Receptor: Primary Screen for Antagonists; also: 0% is about no effect
# Settings: HEK293 TREx D2 cells, calcium flux, dopamine EC80; at 10 µM; stronger effect = higher value
# Outline: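 Compounds are added to dye-loaded, induced HEK293 T-REx cells coupled to calcium release via D2; after a 3 min kinetic read an EC80 dopamine stimulus is given and fluorescence is recorded for 3 more min.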
row,SMILES,inhibition
1,COc1ccc(NC(=O)CN(Cc2ccccc2)S(=O)(=O)c2ccc3nc(C)sc3c2)cc1,0.666%
2,COc1cc(CN(C(=O)COc2ccc(C)c(C)c2)c2ccccn2)cc(OC)c1OC,0.726%
3,CCCN(CCC)CCNC(=O)c1cc2c(-c3ccccc3F)nn(C)c2s1,active: 41.5%
4,O=c1c2cc(N3CCOCC3)ccc2[nH]c(=S)n1CCCN1CCN(c2ccccc2F)CC1,active: 83.6%
5,CC1(C)CCc2cc(CN3CCN(c4ccccn4)CC3)ccc2O1,active: 85.2%
6,COc1cc(NC(=O)c2cnn(-c3cccc(F)c3)c2C2CCNCC2)cc(OC)c1OC,4.76%
7,CCc1nnc(NC(=O)CSCc2cc(=O)c3ccc(C)cc3[nH]2)s1,-10.8%
8,COc1ccc(OC)c(S(=O)(=O)N2CCN(CC(O)COc3ccccc3)CC2)c1 (stereo not drawn),active: 47.9%
9,Cc1cc(O)c(C(c2ccccc2Cl)N2CCN(c3ccccc3)CC2)c(=O)n1Cc1ccco1 (stereo not drawn),-14.6%
10,Cc1ccc(C)c(NC(=O)CCCn2nc(C)c3sc4ccccc4c3c2=O)c1,-2.81%
11,Cc1ccc2c(c1)c1c(c(=O)n(Cc3ccccc3)c(=O)n1CC(=O)Nc1ccccc1C)n2C,4.32%
12,Cc1ccc(NC(=O)Cn2c(-c3ccc4c(c3)OCO4)cn(-c3ccccc3)c2=O)cc1,3.04%
13,COc1ccc(-c2c3c(=O)n(C)c(=O)n(C)c3c3c(-c4ccc(C)cc4)nc4ccccc4n23)cc1,-3.36%
14,CCN1CCC(N(Cc2cccc(OC)c2)C(=O)Nc2ccc(C)cc2Cl)CC1,-10.9%
15,Cc1ccc(CSc2nc(=O)c3c(n2C)NC(=O)CC3c2ccc(OC(C)C)cc2)cc1 (stereo not drawn),10.3%
16,CCC(C(=O)Nc1cccc(C#N)c1)n1c(=O)c(-c2ccccc2NC(C)=O)nc2ccccc21 (stereo not drawn),7.58%
17,CCCCCNC(=O)C(=O)NCC(c1ccc2c(c1)OCO2)N1CCOCC1 (stereo not drawn),-12.2%
18,Cc1ccc(S(=O)(=O)Nc2cc3c(cc2N2CCOCC2)n(C)c(=O)n3C)c(C)c1,-9.91%
19,O=C(CSc1oc(-c2ccco2)nc1S(=O)(=O)c1ccc(Cl)cc1)c1ccc(Cl)cc1,10.6%
20,COc1ccc(CNC(=O)CC2N=C3c4ccccc4N=C(SCC(=O)Nc4ccc(N(C)C)cc4)N3C2=O)cc1 (stereo not drawn),-2.42%
21,Cc1cc(Nc2cccc(O)c2)c2cccc(Br)c2n1,8.02%
22,Cc1sc2ncn(CC(=O)Nc3ccc(C(F)(F)F)cc3)c(=O)c2c1S(=O)(=O)N1CCN(C)CC1,1.59%
23,Cc1cccc(NC(=O)CSc2nnc3c4ccccc4n(C)c3n2)c1,-4.52%
24,CCc1ccc(S(=O)(=O)c2cn(CC(=O)Nc3cccc(C)c3)c3ccc(Cl)cc3c2=O)cc1,8.69%

row,SMILES,inhibition
1,COC(=O)c1ccccc1NC(=O)N(Cc1ccc(C)cc1)Cc1cccn1-c1nnc(N2CCCC2=O)s1,6.32%
2,COc1ccc(OC)c(-c2cc(C(=O)Nc3cc(C)on3)no2)c1,active: 38.2%
3,CCOC(=O)c1[nH]c(C)c(CCC(=O)NCc2ccc(OC(C)C)cc2)c1C,10.8%
4,Cc1ccc(CNS(=O)(=O)c2c(C(=O)N3CCC(C)CC3)c(C)n(C)c2C)cc1,4.18%
5,COc1ccc(C)cc1NC(=O)C1CCN(S(=O)(=O)c2cccc3nonc23)CC1,-13%
6,COc1ccc(OC)c(NC(=O)c2nc(SCc3ccc(F)cc3)ncc2Cl)c1,-26.8%
7,O=C(NCCc1csc(-c2ccc(F)cc2)n1)C(=O)Nc1ccc(Cl)cc1,-10.3%
8,O=C(/C=C/c1cn(CC(O)CN2CCc3ccccc32)c2ccccc12)c1ccc(Br)cc1 (stereo not drawn),-0.82%
9,CCC(=O)N1c2ccc(S(=O)(=O)NCCc3ccccc3)cc2CC1C (stereo not drawn),1.89%
10,CC(C)NC(=O)COc1coc(CN2CCN(C(=O)c3ccco3)CC2)cc1=O,active: 49.7%
11,Cc1cc(C)cc(N2C(=O)CS(=O)(=O)C23C(=O)N(Cc2ccccc2)c2ccccc23)c1 (stereo not drawn),10.4%
12,Cc1cc(OCC(=O)Nc2ncn[nH]2)c(C)c(C)c1Br,6.49%
13,COc1nnc(-c2ccc(N3CCCCC3)c(NC(=O)c3ccc(Cl)cc3)c2)c2ccccc12,-2.7%
14,COc1ccc(-c2cc(C(F)(F)F)nc(SCC(=O)Nc3ccc(C(C)=O)cc3)n2)cc1,-12.4%
15,CCOC(=O)C1CCN(c2ncnc3c2c(-c2ccccc2)cn3-c2ccc(C)c(Cl)c2)CC1,2.05%
16,Cc1nn(-c2ccc(C(=O)N3CCN(S(=O)(=O)c4ccccc4C(F)(F)F)CC3)cc2)c(C)c1Cl,active: 56.3%
17,CCc1cc(=O)[nH]c(SCc2nc(-c3ccccc3C)no2)n1,-0.699%
18,COc1cccc2sc(N(Cc3cccnc3)C(=O)c3ccc(S(=O)(=O)N(C)C)cc3)nc12,5.95%
19,CCOC(=O)C1CCCN(C(=O)C2CCN(S(=O)(=O)c3c(C)noc3/C=C/c3ccc(C)cc3)CC2)C1 (stereo not drawn),2.49%
20,COc1ccccc1CNC(=O)c1cc2cc(S(=O)(=O)N3CCCCC3)ccc2n1C,4.37%
21,O=C(O)c1ccccc1NC(=O)N1c2ccccc2Sc2ccccc21,5.32%
22,CC1CCCN(Cc2c(O)ccc3c(=O)c(-c4ccc(Cl)cc4)c(C(F)(F)F)oc23)C1 (stereo not drawn),-19.4%
23,COc1cc2c(cc1OC)C(c1cc(OC)c(O)c(OC)c1)CC(=O)N2 (stereo not drawn),1.76%
24,Cc1nc2c(C(=O)NCCC(C)C)cnn2c(C)c1Cc1c(F)cccc1Cl,3.8%

row,SMILES,inhibition
1,COc1ccc2c(c1)c1c(c(=O)n(-c3ccc(C)cc3)c(=O)n1CC(=O)Nc1cc(C)ccc1C)n2C,4.25%
2,COc1ccc2ccccc2c1CN1CCN(C)CC1,active: 39.8%
3,Cc1cccc(C(=O)NC(=O)Nc2ccc(-n3nc(C(F)(F)F)cc3C(F)(F)F)cc2)c1,-2.49%
4,CC(=O)N1c2c(cc(Br)cc2S(=O)(=O)Nc2ccccc2C)CC1C (stereo not drawn),4.62%
5,CCOc1cc(Br)c(C2C(C(=O)OC)=C(C)NC3=C2C(=O)c2ccccc23)cc1OCC (stereo not drawn),2%
6,COc1cccc(Cn2cnc3c2c(=O)n(C)c(=O)n3C)c1,-2.93%
7,Cc1c2cnn(CC(=O)NCc3ccc(F)cc3)c(=O)c2c(C)n1Cc1ccccc1Cl,-7.7%
8,COc1ccc(-c2nc(C)c(CCNC(=O)c3ccccc3Br)s2)cc1OC,-0.0585%
9,CC(=O)N1CCCc2cc(S(=O)(=O)N3CCC(N(C)C(C)C)CC3)ccc21,13.7%
10,Cc1ccc(-c2c(C)n3c4c(=O)n(C)c(=O)n(C)c4nc3n2CCCO)cc1,-15.5%
11,O=C(CSc1nc2c([nH]c3ccccc32)c(=O)n1-c1ccccc1)Nc1ccccc1F,15%
12,COc1ccc(C(=O)Nc2cccc(-c3nc4cccnc4s3)c2C)c(OC)c1,-9.34%
13,CCOC(=O)c1ccccc1NC(=O)Cn1c(=O)n(Cc2ccc(C(=O)NCc3ccc4c(c3)OCO4)cc2)c(=O)c2ccccc21,3.45%
14,CCOc1ccc(NC(=O)C2CCCN(S(=O)(=O)c3ccc(Br)s3)C2)cc1 (stereo not drawn),2.63%
15,Cc1ccccc1NC(=O)N1CCC(CN2CCCC2)CC1,-10.6%
16,Cc1ccc(OCC(=O)OCc2cc(=O)n3c(C)csc3n2)cc1,-10.8%
17,CCC(=O)N1CCc2cc(S(=O)(=O)NC(Cc3ccccc3)C(=O)NCc3ccc(F)cc3)ccc21 (stereo not drawn),-18.5%
18,CCc1cccc(-n2c(=O)c3cccnc3n2CC(=O)Nc2ccccc2C(=O)OC)c1,-9.89%
19,Cc1ccc2oc(C(=O)Nc3sc4c(c3C(=O)NCc3ccccc3)CCCC4)cc(=O)c2c1,5.24%
20,CCOc1ccc(NC(=O)c2ccc3nc(Cc4ccccc4)oc3c2)cc1,10.8%
21,CCC1CN(C(=O)Nc2cc(OC)cc(OC)c2)c2ccccc2S1 (stereo not drawn),-7.07%
22,CN(C)S(=O)(=O)c1cccc(NC(=O)CCSc2ccc(Cl)cc2)c1,active: 33.1%
23,COc1cccc(NC(=O)C2CCCN2S(=O)(=O)c2ccc3c(c2)n(C)c(=O)c(=O)n3C)c1 (stereo not drawn),-6.66%
24,COc1ccc(OC)c(NC(=O)c2nc(SCc3ccccc3F)ncc2Cl)c1,-0.843%

row,SMILES,inhibition
1,O=C(Cn1c(=O)oc2cc(S(=O)(=O)NCc3ccccc3)ccc21)N(CCO)Cc1ccccc1,5.9%
2,CC1C(=O)N2CCCc3cc(S(=O)(=O)Nc4ccc(Br)cc4F)cc1c32 (stereo not drawn),-2.05%
3,CC1CCN(S(=O)(=O)c2ccc(S(=O)(=O)NCc3ccccc3)cc2)CC1,active: 31%
4,CCOc1cc(-c2nnc(SCC(=O)NCc3ccc(C)cc3)nc2-c2ccc(OC)c(OCC)c2)ccc1OC,13.1%
5,CCCNC(=O)c1c2c(nc3ccccc13)C(=O)N(C1CCCCC1)C2,16.4%
6,CCCc1cc(=O)[nH]c2nnc(SCC(=O)Nc3cccc(C)c3)n12,-17.5%
7,Cc1cccn2c(=O)c(/C=C(\C#N)c3nc4ccccc4n3C)c(Oc3ccc(Cl)cc3)nc12,-2.44%
8,COc1cccc(-c2cc(C(=O)Nc3ccc(F)cc3)[nH]n2)c1,-7.05%
9,CCNC(=O)c1ccc(-n2c(-c3ccccc3)cc3c2CCCCC3)cc1,1.82%
10,Cc1c(C(=O)Nc2cccc(C(F)(F)F)c2)oc2ccc(S(=O)(=O)N(C)C3CCCCC3)cc12,19.5%
11,O=C(CC1C(=O)N(c2ccccc2)C(=O)N1CCc1cccs1)Nc1ccc(Cl)cc1 (stereo not drawn),18.5%
12,COc1ccc(OC)c(NC(=O)[C@H](Cc2ccccc2)N2Cc3ccccc3C2=O)c1,-8.35%
13,Brc1ccc(Oc2nnnn2-c2ccccc2)cc1,active: 44.7%
14,COc1cccc(CNC(=O)CCc2c(C)nn(-c3ccc(N4CCOCC4)nn3)c2C)c1,-12.2%
15,CC(=O)Nc1nonc1-c1nnc(SCc2ccc(C)cc2)n1C,-18.8%
16,N#Cc1sc2nc(-c3ccccc3)cc(-c3ccco3)c2c1N,active: 62.3%
17,COc1ccc(CN2CCN(S(=O)(=O)c3ccccc3)CC2)c(OC)c1,-6.36%
18,CCn1cc(S(=O)(=O)c2ccc(C)cc2C)c(=O)c2cc(F)c(N3CCCC3)cc21,12.8%
19,Cc1ccc(CSc2nnc3[nH]c(=O)cc(C)n23)cc1,-2.15%
20,CCCn1cc(S(=O)(=O)c2ccc(OC)cc2)c(=O)c2cc(F)c(N3CCCCCC3)cc21,3.22%
21,CC(C)Oc1ccc(CNC(=O)C2CCCN(S(=O)(=O)c3ccc4c(ccn4C)c3)C2)cc1 (stereo not drawn),-27.4%
